± gives the standard deviation of the averaged measurements. The list shows a part of the results.

This assay deals with PfAP2-I AP2 domain 3 (GST-tagged). In words: gcPBM binding intensity (ln(normalized median fluorescence intensity)); higher = stronger DNA binding. In outline:
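Binding intensity is the highest Masliner-normalised natural-log median intensity over replicate spots in either probe orientation. To obtain it, GST-tagged P. falciparum DNA-binding domains made in E. coli were incubated for 1 h on an Agilent 4 × 180k array of primer-extended double-stranded 36-bp intergenic genomic probes plus negative controls. Detection used Alexa488 anti-GST antibody with scanning at 488 nm.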
Turning to “AATATAAATAAAAACACACACAATGGTACCTATATA [CACACA_site7688]”, the “gcPBM binding intensity (ln)” value was found to be 7.83 ± 0.61.
The figure for “TCAATATAAATTAGTTGTACAGTTTTTTTTAATTAT [XGTACX_site6358]” is 7.62 ± 0.49; for “ATCAAATAATAGCAAACACACAAAAAATAAAAAAAA [CACACA_site4146]” it is 7.72 ± 0.54.
Under “AATGTTTTTTTTTTTTTTTTTTTTTATTTATTGTTA [CACACA_negctrl_site505]” stands 7.36 ± 0.42; under “ATTTTTTGGAAAAGAAGTACAATGGATTTATACGTT [XGTACX_site891]”, 7.81 ± 0.4; under “TAACATATAATATTATGTACATATATACATATATAA [XGTACX_site7467]”, 7.75 ± 0.18.
The figure for “AAAAAATCACGACACACACACACACTAAAAAAAAAA [CACACA_site6792]” is 8.33 ± 0.34.
As to “CACTACATTATGTCATAAATGCATACATAAACATAT [GTGCAC_negctrl_site513]”, the “gcPBM binding intensity (ln)” value turned out to be 8 ± 0.54.
On to “TTTATATTTCAATTTTGTGCTTCGCAAATTGAGAGG [TGCATGCA_negctrl_site327]”, for which the “gcPBM binding intensity (ln)” value came to 7.57 ± 0.42.
Under “TATAACATAATATAGACACACACATGTACTTATGCC [CACACA_site8547]” stands 7.91 ± 0.38.
Take “GAAAAGCATAGATGCACACATATATATATATATATA [CACACA_site2169]”: the “gcPBM binding intensity (ln)” value stood at 9.4 ± 0.35.
Under “GTGTTAATTTTAAATTGTACAAAATTTATATGATTT [XGTACX_site348]” stands 7.83 ± 0.38.
The figure for “ATTAATTTTGGTTCATGTACATAAGAAATAAACTCT [XGTACX_site4534]” is 7.97 ± 0.35.
Under “ATTTTTATACGTTTTTTTTTTTTTTTTTTTTATTTA [CACACA_negctrl_site1142]” stands 7.41 ± 0.71; under “ATATACTTTTTTTTTTTTTTTTTAACGTTATTTATG [CACACA_negctrl_site1277]”, 7.54 ± 0.53.
Regarding “AAAATATATGAAAACAGTACATATAAAAATTAAAAA [XGTACX_site2594]”, the “gcPBM binding intensity (ln)” value amounted to 7.65 ± 0.62.
Under “TTACACATATATATAAATATATATAAATATATATAT [CACACA_negctrl_site150]” stands 8.42 ± 0.31; under “TATTTGTTTGAATTTTTTTTTTTTTTTTTTTATGTG [CACACA_negctrl_site966]”, 7.18 ± 0.3.
The figure for “TACAGACAGAAATGCACACACATATATATATATATA [CACACA_site2283]” is 9.53 ± 0.18.
Under “TATATTTATATCCACTTCGTTTAACGCACAGATATA [CACACA_negctrl_site954]” stands 9.71 ± 0.28.
As to “TGAGATATAAAAATATGTACTTATGTATAAATATTT [XGTACX_site7746]”, the “gcPBM binding intensity (ln)” value came to 7.6 ± 0.55.
Under “CCAAATTTATTTTGTAGTACTCCGTATAGATCAACA [XGTACX_site7945]” stands 8.06 ± 0.11; under “ATTATAAAAATATATTGTACACAAAAATGTTTATAT [XGTACX_site5066]”, 7.8 ± 0.2.
Under “AAGTTTTTTTTTAACACACACATAATAAAATAAATA [CACACA_site446]” stands 8.15 ± 0.19; under “TTGAAAAATGAGCACACACACAAATACATACATATT [CACACA_site3231]”, 7.97 ± 0.36.
As to “CAAAAAACAACAGATCGTACAAAATATTATATATAT [XGTACX_site2285]”, the “gcPBM binding intensity (ln)” value worked out at 8.12 ± 0.67.
The figure for “TATCCATATTTGTTCACACACACACCGATTTATATA [CACACA_site5888]” is 8.12 ± 0.62; for “TTTTAACAAAAAAAAAGAAAAGAAAAGAAAATAATA [XGTACX_negctrl_site530]” it is 7.32 ± 0.61; for “TTAACTCTGGAGAAAAGTACATAGTATCTGGTAACA [XGTACX_site4941]” it is 7.66 ± 0.67.
On to “ATAAATAAATAAATAAATAAATATACATATACATAT [CACACA_negctrl_site205]”, for which the “gcPBM binding intensity (ln)” value was 7.58 ± 0.59.
Under “AGCATTTTAAGTTATACACACATTTTGAATCTATAT [CACACA_site7599]” stands 7.88 ± 0.63.
For the sequence “AAGAAATAAAAAGAATGTACACAATATGTATTATAA [XGTACX_site4733]”, the “gcPBM binding intensity (ln)” value came to 7.99 ± 0.43.
The figure for “TGGACAATTGTTTATTGTACTTAAATTTTATGTTCT [XGTACX_site8974]” is 7.54 ± 0.48; for “TCTTATTCAAACGTAAAACGAAGAAGAAAAAAAAAA [CACACA_negctrl_site149]” it is 7.74 ± 0.81.
The figure for “ATATACTATATTTTAACACACAAAAAAAAAAAATAT [CACACA_site1091]” is 8 ± 0.59; for “AAATTATATATATTACGTACATAGAACTTTACAGAA [XGTACX_site6646]” it is 7.96 ± 0.34; for “ATGTTACACCGACACACACACATAAAAAAACAAAAA [CACACA_site5750]” it is 8.15 ± 0.34.
Under “GTGTTTGAAAATAAAGCATGCAAATATATTTGAAAT [TGCATGCA_site386]” stands 8.03 ± 0.71; under “TTTTTTTTGTTCATTGTGCACATTGCTTGCATGGAA [GTGCAC_site9693]”, 10.5 ± 0.15; under “AAAATAATAAATAAATGTACATATATATATATATAT [XGTACX_site3078]”, 9.2 ± 0.25.
For the sequence “ATAAGATTATACAATTGTACGTTGTTCAAGATAAGG [XGTACX_site191]”, the “gcPBM binding intensity (ln)” value came to 7.96 ± 0.48.
The figure for “AACTAATTCATGTTATATTAGATAAAAAAAAAAAAA [TGCATGCA_negctrl_site340]” is 7.98 ± 0.57; for “ATATTTTTTAATTTTACACACCATATAAAATAATTC [CACACA_site7339]” it is 8.02 ± 0.58; for “AAATATATTATATGTACACACAAAATTAAGGGATAT [CACACA_site1375]” it is 8.24 ± 0.54.

Source of the values: the supplement of paper PMC11417369.
